# Source: publication PMC4336329 (PLoS ONE, 2015)
# In all, about 310,000 compounds went through this assay and about 14,000 (4.5%) showed an effect of 50% or more. The effect is printed as a negative number. The list shows a part of the results.
# Target: human ether-à-go-go-related gene (hERG) potassium channel (human, UniProt Q12809)
# Assay: primary screen, population patch clamp on CHO cells stably expressing hERG
# 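Also: peak tail current of the secondary pulse compared with the same well before compound.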
# human ether-à-go-go-related gene (hERG) potassium channel, sequence (Q12809 whole entry, looked up): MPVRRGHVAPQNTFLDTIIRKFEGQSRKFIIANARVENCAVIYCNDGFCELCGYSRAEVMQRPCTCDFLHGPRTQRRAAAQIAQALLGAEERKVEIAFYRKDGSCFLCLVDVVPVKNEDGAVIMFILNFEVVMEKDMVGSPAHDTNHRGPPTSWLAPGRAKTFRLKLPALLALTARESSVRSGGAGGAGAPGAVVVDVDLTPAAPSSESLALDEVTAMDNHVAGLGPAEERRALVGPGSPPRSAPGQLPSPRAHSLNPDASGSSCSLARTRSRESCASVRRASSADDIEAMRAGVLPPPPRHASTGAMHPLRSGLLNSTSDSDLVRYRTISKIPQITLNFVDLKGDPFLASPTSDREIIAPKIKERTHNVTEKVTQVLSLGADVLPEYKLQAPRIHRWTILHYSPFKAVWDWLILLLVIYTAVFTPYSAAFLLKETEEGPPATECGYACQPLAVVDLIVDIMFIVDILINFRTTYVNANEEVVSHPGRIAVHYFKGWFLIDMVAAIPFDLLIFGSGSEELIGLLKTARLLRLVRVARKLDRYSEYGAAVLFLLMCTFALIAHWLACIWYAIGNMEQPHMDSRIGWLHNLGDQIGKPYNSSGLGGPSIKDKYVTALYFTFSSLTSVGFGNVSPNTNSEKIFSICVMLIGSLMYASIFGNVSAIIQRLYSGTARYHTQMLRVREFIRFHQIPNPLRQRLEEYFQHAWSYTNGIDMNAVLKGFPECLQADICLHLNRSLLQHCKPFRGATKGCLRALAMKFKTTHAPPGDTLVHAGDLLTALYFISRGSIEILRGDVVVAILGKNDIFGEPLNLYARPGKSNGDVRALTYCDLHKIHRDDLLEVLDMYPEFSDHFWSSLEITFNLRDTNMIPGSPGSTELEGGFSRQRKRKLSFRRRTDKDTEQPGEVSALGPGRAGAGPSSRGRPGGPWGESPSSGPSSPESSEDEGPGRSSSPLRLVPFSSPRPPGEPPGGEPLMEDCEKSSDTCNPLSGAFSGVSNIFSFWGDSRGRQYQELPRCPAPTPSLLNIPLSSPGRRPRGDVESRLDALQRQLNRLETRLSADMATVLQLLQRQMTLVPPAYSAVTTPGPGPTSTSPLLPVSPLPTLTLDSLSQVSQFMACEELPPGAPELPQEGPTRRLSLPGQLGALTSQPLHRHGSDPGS
row,SMILES,"hERG current change (%, negative = inhibition) at 10uM"
1,COc1ccc(NC(=O)c2cc3n(n2)C(C(F)(F)F)CC(c2ccco2)N3)cc1 (stereo not shown),7.87%
2,Cc1nc2scc(C)n2c(=O)c1S(=O)(=O)NCc1ccccc1,11.8%
3,COCCNc1c2c(nc3ccccc13)CCC2.Cl,-58.5%
4,CN(CCCNC(=O)c1ccc(N2CCCC2=O)cc1)c1ccccc1,-6.96%
5,O=C(Nc1nc2ccccc2n1CCN1CCOCC1)c1cn(-c2ccccc2)nc1-c1ccccc1,-0.966%
6,CCOC(=O)C(=O)c1csc(NC(=O)CCSc2ccc(C)cc2)n1,11.4%
7,Cc1ccc2cc(/C=N/NC(=O)CN3CCCCC3)c(Cl)nc2c1,-44.1%
8,COc1ccc(CNCc2ccc([N+](=O)[O-])cc2)cc1OC.O=C(O)C(=O)O,-38.7%
9,COc1ccc(CCNC(=O)c2cc(-c3ccc4c(c3)OCO4)on2)cc1OC,-4.11%
10,N=c1c2c3c(sc2ncn1CCN1CCOCC1)CCCCC3,-42.9%
11,Cc1cccc(OC(C)C(=O)N(Cc2cccs2)C2CCS(=O)(=O)C2)c1C (stereo not shown),-14.8%
12,O=C(C1CCCC1)N1CCN(S(=O)(=O)c2ccc(F)cc2)CC1,15.9%
13,O/N=C/c1nc2cc(Cl)ccc2o1,11%
14,CC(C)Oc1ccc(/C(O)=C2/C(=O)C(=O)N(CCN3CCNCC3)C2c2cccc([N+](=O)[O-])c2)cc1 (stereo not shown),21.1%
15,Cc1ccc(NC(=O)CSc2n[nH]c(=O)n2C2CC2)cc1S(=O)(=O)N1CCOCC1,14.2%
16,CC1CC(C)CN(C(=O)C2CCC(CNS(=O)(=O)c3ccccc3)CC2)C1 (stereo not shown),-14%
17,CC(C)N(CCNS(=O)(=O)c1ccc(Cl)cc1)C(C)C.Cl,-28.1%
18,O=C(CSc1nnc(COc2ccccc2)o1)NC1CC2CCC1C2 (stereo not shown),17.5%
19,O=C(CSc1ccc(Cl)cc1)Nc1ccc(N2CCN(C(=O)c3ccco3)CC2)cc1,-16.1%
20,CCOc1c(Cl)cc(C(=O)Nc2ccccc2C(=O)O)cc1Cl,80.5%
21,Cc1ccc(NC(=O)CN(c2ccc(Cl)cc2)S(=O)(=O)c2cc([N+](=O)[O-])ccc2Cl)cc1,5.17%
22,COc1ccc(S(=O)(=O)N(CC(=O)NC2CCCC2)c2ccccc2OC)cc1,-4.13%

row,SMILES,"hERG current change (%, negative = inhibition) at 10uM"
1,COc1cc(/C=C2\N=C(C)OC2=O)cc(Cl)c1OC(C)=O,14.9%
2,Cc1ccc(C)c(-n2cc[nH]c2=S)c1,18.4%
3,CCc1ccc2c(c1)/C(=N/N(C)C(=S)NC)C(=O)N2,-13.4%
4,COc1ccc(/C=N/NC(=O)c2nn(-c3ccccc3)c(=O)c3c(N)scc23)cc1,-3.55%
5,CCOc1ccccc1CNC(=O)c1c([N+](=O)[O-])c(C)nn1C,-10.9%
6,COc1ccccc1NC(=O)CNC(=O)Cn1c(C)cc2ccccc2c1=O,20.5%
7,CCOC(=O)CCC(=O)N1CCOCCOCCN(C(=O)CCC(=O)OCC)CCOCC1,-7.63%
8,Cc1nccn1CCCNC(=O)C1CCC(=O)N(Cc2ccccc2F)C1 (stereo not shown),-1.67%
9,CCOC(=O)Cn1c(=O)c2c(nc(N3CCCCC3)n2Cc2ccccc2)n(C)c1=O,-40.4%
10,COc1cc(C=O)ccc1OCC(=O)Nc1ccccc1N1CCOCC1,-1.22%
11,COc1ccc(/C(N)=N/OC(=O)CSc2ccccc2)cc1,-2.41%
12,COC(=O)c1sc(=S)n(-c2ccccc2)c1N,12.3%
13,COc1ccc(Cc2nnc(NC(=O)c3cccs3)s2)cc1OC,9.26%
14,c1ccc(N2CCN(CC3CCCCC3)CC2)cc1,9.61%
15,O=C(NCc1ccccc1)C(c1ccccc1)N(C(=O)c1csnn1)c1ccc(F)cc1 (stereo not shown),10.7%
16,COc1cccc(CN2CCC(C(=O)N3CCN(c4ccccc4F)CC3)CC2)c1,-53%
17,Cc1nnc(SCc2ccc(CC(=O)O)cc2)o1,12.1%
18,CC(=O)N1CCN(C(=O)C2(NC(=O)Nc3cccc(F)c3)CCCCC2)CC1,18.3%
19,CSCCC(NC(=O)c1ccccc1Cl)C(=O)NNC(=O)c1ccncc1 (stereo not shown),-10.5%
20,CC(C)c1ccc(NC2CCCN(C(=O)c3cscn3)C2)cc1 (stereo not shown),3.84%
21,COc1ccc(-c2csc(N3CCC(C(N)=O)(N4CCCCC4)CC3)n2)cc1,-1.82%
